# Measurements taken from paper PMC6919601, “Identification of Plasmodium dipeptidyl aminopeptidase allosteric inhibitors by high throughput screening” (PLoS ONE, 2019).
# Hit rate of the full screen: of about 110,000 compounds, about 230 (0.21%) showed an effect of 50% or more. The list shows a part of the results.
# Target: DPAP1 (Plasmodium falciparum, UniProt Q8IIJ9)
# Assay: primary screen, percent inhibition; read by cleavage of a fluorogenic dipeptide substrate; higher = more effect of the substance
# Parameters: species or system P. falciparum D10 trophozoite lysates; single well
# 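Further: 30 min substrate incubation versus DMSO and 10 µM JCP410 controls.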
# Chain of DPAP1 (Q8IIJ9 whole entry, looked up): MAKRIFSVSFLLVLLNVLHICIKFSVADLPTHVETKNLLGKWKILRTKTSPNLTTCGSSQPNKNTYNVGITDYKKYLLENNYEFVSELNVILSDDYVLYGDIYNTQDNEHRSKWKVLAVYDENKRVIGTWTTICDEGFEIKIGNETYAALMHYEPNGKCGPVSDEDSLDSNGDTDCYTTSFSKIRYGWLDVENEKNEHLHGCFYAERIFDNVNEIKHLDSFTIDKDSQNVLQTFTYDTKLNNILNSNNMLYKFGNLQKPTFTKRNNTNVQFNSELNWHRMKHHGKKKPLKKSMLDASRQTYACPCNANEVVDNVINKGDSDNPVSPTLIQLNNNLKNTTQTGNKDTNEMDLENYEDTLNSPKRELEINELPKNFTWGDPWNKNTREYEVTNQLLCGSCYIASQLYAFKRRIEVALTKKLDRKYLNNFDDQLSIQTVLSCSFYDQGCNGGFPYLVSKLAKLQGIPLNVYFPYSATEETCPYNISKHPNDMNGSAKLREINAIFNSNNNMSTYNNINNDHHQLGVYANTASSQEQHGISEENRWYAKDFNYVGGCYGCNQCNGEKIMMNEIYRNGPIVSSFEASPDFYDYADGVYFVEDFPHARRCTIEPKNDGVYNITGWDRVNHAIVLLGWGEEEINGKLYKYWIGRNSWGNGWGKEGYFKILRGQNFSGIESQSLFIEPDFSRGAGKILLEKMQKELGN
row,Compound,% Inhibition @ 10 uM
1,Cc1cccc(-n2nc3c(c2NC(=O)c2ccc(C(=O)c4ccccc4)cc2)CS(=O)(=O)C3)c1C,9.22%
2,O=C1CCCC2=C1C(c1ccc(Br)cc1)Nc1ccc3ncccc3c12 (stereo not shown),4.12%
3,Cc1nc2sc3c(c2c2nnc(SCC(=O)c4ccccc4)n12)CCCC3,-2.65%
4,N#CC1=C(N)N2C(=N)CSC2=C(C(N)=O)C1c1ccccc1 (stereo not shown),4.7%
5,COc1ccccc1-c1nc(-c2ccncc2)no1,1.4%
6,COc1ccc(CCNCc2c(C(=O)O)c(C)n(Cc3ccc(C)cc3)c2C)c(OC)c1,-1.92%
7,Cc1ccc(S(=O)(=O)C(c2ccccc2)c2c(C)noc2C)cc1 (stereo not shown),-3.45%
8,O=C(O)CNC(=O)/C(=C/c1ccccc1)NC(=O)c1ccco1,-2.54%
9,COc1ccc(S(=O)(=O)N(CC(=O)NC(C)C)c2cccc(Cl)c2)cc1,7.42%
10,CCOCCCNC(=O)c1ccc2c(c1)nc(C)n2-c1ccc(F)c(F)c1,4.35%
11,OC(COC1CCCCC1)Cn1c2ccccc2c2ccccc21 (stereo not shown),-0.693%
12,COc1ccccc1C(=O)Nc1ccc(C)cc1Br,0.214%
13,CN(C)CCC/N=C/C1=C(O)CC(C)(C)CC1=O,1.25%
14,Cc1cc(NS(=O)(=O)c2ccc(NC(=O)COc3ccc(Br)c(C)c3)cc2)no1,-1.51%
15,C=CCn1c(SC)nc2c(c1=O)C1(CCCCC1)Cc1ccccc1-2,2.92%
16,Cc1cccc(N(CC(=O)N2CCC(C)CC2)S(C)(=O)=O)c1C,-3.03%
17,CN(C(=O)Nc1cccc(C(=O)NC(CSCc2ccccc2)C(=O)NCC#N)c1)[C@@H]1CCN(Cc2ccccc2)C1 (stereo partly shown),-6.98%
18,Cc1ccc(-c2nnc(NC(=O)Nc3ccc(Cl)cc3)s2)cc1,3.48%
19,O=C(C(NS(=O)(=O)c1ccc(Br)s1)c1ccccc1)N1CCOCC1 (stereo not shown),-1.92%
20,CCCn1c2ccccc2c2cnn(CC(=O)NCCCN(Cc3ccco3)C3CCCC3)c(=O)c21,2.36%
21,Cc1sc2nc(SCC(=O)N3CCOCC3)nc(O)c2c1C,2.18%
22,O=C(c1cc2cc3ccc(Cl)cc3nc2o1)N1CCCCCC1,-1.54%
23,COc1ccc(OC)c(NC(=O)Cc2ccc(F)cc2)c1,0.843%
24,CCOc1ccc(-n2nnc(-c3nc(-c4ccccc4C)no3)c2N)cc1,1.66%
25,COc1ccc(CN2CCC(Cc3ccccc3)CC2)c(OC)c1,0.708%

row,Compound,% Inhibition @ 10 uM
1,Cc1cc2ccccc2n1CCNC(=O)C(c1ccccc1)c1ccccc1,-4.89%
2,COCCN1C=C(C(=O)OC)C(c2ccccc2OC)C(C(=O)OC)=C1,2.09%
3,Cc1cc(Cl)ccc1NC(=O)CN(Cc1ccccc1)S(C)(=O)=O,-3.78%
4,O=C(O)c1ccc(NC(=O)c2nccnc2C(=O)O)cc1,-2.18%
5,O=C(NCCc1ccc(Cl)cc1)C1CCN(S(=O)(=O)c2cccc3nsnc23)CC1,-3.35%
6,CC1(C)CC(=O)C(/C=N/CCc2ccc(O)cc2)=C(O)C1,-7.08%
7,CNC(=O)/C(=C\c1cccc(Oc2ccccc2)c1)NC(=O)c1ccc(C)cc1,-8.12%
8,O=S(=O)(c1ccccc1)N1CCN(c2ncnc3scc(-c4ccccc4)c23)CC1,-2.19%
9,COC(=O)c1sc2ccccc2c1C(=O)OC,3.04%
10,O=C1OC(c2ccccc2)=N/C1=C\N1CCCCC1,1.25%
11,Cc1ccc(C)c(OCC(=O)NC(CC(=O)O)c2ccc(C(C)(C)C)cc2)c1 (stereo not shown),7.4%
12,O=C(CSCc1cccc(Br)c1)NCc1ccccc1,-0.0217%
13,COc1cccc(C2NC(C(=O)O)Cc3c2[nH]c2ccccc32)c1OC (stereo not shown),-5.5%
14,Cc1ccc(CCNc2nn3nnnc3c3ccccc23)cc1,-0.975%
15,CN1CCN(Cc2ccc(N(C)C)cc2)CC1,-3.35%
16,CCOC(=O)c1cnc2sccn2c1=O,0.708%
17,Cc1cc(C)c(C)c(S(=O)(=O)N2CCC(C(N)=O)(N3CCCCC3)CC2)c1C,0.00706%
18,CC(=O)c1ccc(NC(=O)CCC(=O)O)cc1,-6.52%
19,O=C(O)c1ccccc1C(=O)N1CCN(c2ccc(Cl)c(Cl)c2)CC1,-3.92%
20,Cc1cccc(/N=c2\scc(-c3ccc(Cl)cc3)n2CCO)c1,-2.36%
21,Cc1ccc(CS(=O)(=O)Cc2ccc(C(=O)NCCc3ccccc3)o2)cc1,-2.99%
22,Cc1ccccc1-c1noc(CCC(=O)NC2CCCCC2)n1,-3.12%
23,CN1C(=O)S/C(=C\c2ccccc2F)C1=O,-4.93%
24,O=C(O)c1ccc2nc(-c3ccc(O)cc3)sc2c1,6.49%
25,CC1CCC(C(=O)NC(Cc2c[nH]c3ccccc23)C(=O)NCCCOC(C)C)CC1 (stereo not shown),-2.49%

row,Compound,% Inhibition @ 10 uM
1,O=C(C1CCN(c2nnc(-n3cccc3)s2)CC1)N1CCN(Cc2ccc3c(c2)OCO3)CC1,5.84%
2,COc1ccc(NC(=O)c2cnn3c(C(F)(F)F)cc(-c4cccs4)nc23)c(OC)c1,1.67%
3,COc1ccc(-c2ccc(=O)n(CC(=O)NCc3ccco3)n2)cc1,3.93%
4,CCCCOc1ccc(N2CC(C(=O)Nc3ccccc3Cl)CC2=O)cc1 (stereo not shown),3.29%
5,COc1ccccc1CN1C(=O)c2nccnc2C1=O,0.66%
6,COCCNc1oc(Cc2cccc3ccccc23)nc1C#N,0.343%
7,CCC(C)Nc1ncnc2c1cnn2Cc1ccc(Cl)cc1 (stereo not shown),3.21%
8,COc1ccc(NC(=O)/C=C\C(=O)O)c([N+](=O)[O-])c1,4.42%
9,CN(C)CC/N=c1\c(N)c(O)oc2ccccc12,0.986%
10,COc1ccccc1C(=O)N/C(=C/c1ccc(Br)cc1)C(=O)N1CCCC1,2.44%
11,O=C(NCCN1CCOCC1)c1cnn(-c2ccccc2)c1-n1cccc1,0.137%
12,O=C(O)c1ccc(NC(=O)c2c(C(=O)O)cccc2[N+](=O)[O-])cc1,-3.16%
13,CCOC(=O)c1cnn(-c2nc(C)cc(C)n2)c1N,-0.769%
14,COc1ccccc1-c1cc(C(=O)Nc2cnn(Cc3ccccc3C)c2)no1,-0.601%
15,O=C(O)c1cc(N2C(=O)C3C4C=CC(C4)C3C2=O)ccc1Cl (stereo not shown),-6.7%
16,CC(C)(C)OC(=O)NCC1CCN(S(=O)(=O)Cc2ccccc2)CC1,0.635%
17,CC1=C(C(=O)Nc2cccc(C)c2C)C(c2ccc(C)cc2)NC(=O)N1 (stereo not shown),-3.39%
18,C=CCC1(N(C(C)=O)c2ccccc2)CCCCC1,-1.05%
19,CCOC(=O)c1c(C)[nH]c(C)c1S(=O)(=O)NCc1ccc(C)cc1,0.358%
20,CCc1sc2ncnc(N(C)C)c2c1-c1ccccc1,2.18%
21,Cc1ccccc1OCC(=O)Nc1sc(Cc2ccccc2)c(C)c1C(N)=O,2.03%
22,CCCCCNc1nc(N)nc(-c2cc(Cl)ccc2OC)n1,0.317%
23,O=C(CN1CCCC1)Nc1c(C(=O)C2CC2)oc2ccccc12,-2.07%
24,CCOC(=O)N1CCN(Cc2nc3c(c(=O)[nH]c(=O)n3C)n2Cc2ccccc2)CC1,-1.21%
25,O=C(Nc1ccn(Cc2ccc(Cl)cc2)n1)c1ccc2c(c1)OCO2,-1.88%

row,Compound,% Inhibition @ 10 uM
1,CCN(CC)c1ccc(NC(=O)c2cccc(C)c2)cc1,1.28%
2,CC1CCN(CC(C)OC(=O)c2ccco2)CC1 (stereo not shown),-0.0735%
3,O=S(=O)(Nc1cccc(C(F)(F)F)c1)c1ccc(F)cc1,1.9%
4,CCOc1ccc(CNCc2c(C(=O)O)[nH]c3cc(C)ccc23)cc1,1.53%
5,COc1cc(C(=O)Nc2ccc(Oc3ccccc3)cc2)cc(OC)c1OC,2.43%
6,CN(Cc1ccccc1)C(=O)Cc1ccccc1,1.83%
7,CCCCO/C(O)=C1/C(C)=Nc2ncnn2C1c1ccccc1C (stereo not shown),4.23%
8,COc1ccc(-c2cc(-c3ccc(OC)cc3O)[nH]n2)cc1,-2.32%
9,Cc1csc(NC(=O)CSc2nc3c(c(C(F)(F)F)c2C#N)CCC3)n1,11.2%
10,Cc1nc2cc(NC(=O)c3ccco3)ccc2n1C,-0.643%
11,Cc1ccc(Cn2c(C(=O)O)c(CNCc3ccccc3C)c3ccc(C)cc32)cc1,8.11%
12,CC1CCC(NC(=O)c2cccc3c2-c2ccccc2C3=O)CC1 (stereo not shown),2.99%
13,Cc1ccn2c(NC(=O)COc3ccccc3)c(-c3ccc(F)cc3)nc2c1,2.83%
14,COc1cccc(OC)c1C(=O)N1CC(C)OC(C)C1 (stereo not shown),1.83%
15,CCOc1ccccc1NC(=O)COc1c(C)cccc1C,-6.08%
16,Cc1cc(C)c(C)c(S(=O)(=O)NCC(=O)Nc2ccccc2F)c1C,-1.55%
17,Fc1ccccc1-c1nn2c(Cn3nnc4ccccc43)nnc2s1,1.25%
18,CC(C)C[C@@H](C(=O)NCC#N)c1cccc(-c2ccc(S(=O)(=O)N3CCN(C(C)(C)C)CC3)s2)c1,-3.04%
19,O=C(Nc1ccc(S(=O)(=O)Nc2ccccc2C(F)(F)F)cc1)c1ccc(F)cc1,-0.0619%
20,CN(C)CCCNC(=O)/C(=C\c1ccc(Cl)cc1)NC(=O)c1ccccc1,1.27%
21,CCC(C)N/C=C1/C(=O)NC(=O)N(c2ccccc2C)C1=O (stereo not shown),-5.65%
22,Cc1ccc2[nH]c(C)c(CCn3c(C)nc(=O)c(-c4ccccc4)c3C)c2c1,4%
23,CC1=C(C#N)C(=O)N(CCc2ccccc2)C(=O)/C1=C\NC(=O)Nc1ccccc1Br,0.726%
24,COC(=O)C(CC(C)C)NC(=O)Nc1ccccc1 (stereo not shown),-11.3%
25,Cc1cccc(Cn2c(SCc3ccc(C(=O)NCc4cccnc4)cc3)nc3cccnc32)c1,2.97%
